Out of some 300,000 compounds screened, about 2,300 (0.77%) were called active. The shares of active, inactive and inconclusive entries below differ from those in the screen.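 The calls were made as follows: active = mean activation of at least 80% with every replicate also reaching 80%; inconclusive = mean reaches 80% but some replicate falls short; inactive = the rest.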
Experiment: MITF-driven TRPM1 luciferase induction in melanoma cells – cell-based, SK-MEL-5, single point, primary screen (AID 588334);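 also: 0% = neutral control wells and 100% = parthenolide positive control wells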
Details: SK-MEL-5 TRPM1-promoter luciferase, 24 h; at 12.5 µM; active compounds read high; % of positive control, neutral wells = 0

Structure (SMILES)	activation
CC(=O)Nc1sc2c(c1-c1nc3ccccc3s1)CN(C(C)C)CC2	inactive: -61.6%
Cc1ccc(S(=O)(=O)Nc2cccc(-c3ccc(N4CCCCCC4)nn3)c2)cc1	inconclusive: 83.8%
O=C(c1ccccc1)c1cnc(Nc2ccccc2Cl)s1	active: 97.7%
N#C/C(=C\c1ccc(Sc2ccccc2)o1)c1nc2ccccc2[nH]1	active: 121%
Cc1cccnc1NC(=O)Nc1cccc(Cl)c1	active: 90.5%
CCN(CC)S(=O)(=O)c1cc(C(=O)Nc2cc(C)[nH]n2)ccc1Cl	inconclusive: 81.6%
O=C(CC1Sc2ccccc2NC1=O)c1ccc(Br)cc1 (centres undefined)	inconclusive: 82.7%
C/C(=N\NC(=O)c1nnn(-c2nonc2N)c1C)c1ccc(OCc2ccccc2)cc1	inconclusive: 90.3%
CC(C)(C)C(=O)Nc1nc(-c2ccc3c(c2)OCO3)cs1	inconclusive: 91.1%
CNc1nc(-c2ccc(Cl)cc2)cs1	inconclusive: 82.3%
Cc1ccc(NC(=O)Nc2cnc3ccccc3c2)cc1	inconclusive: 81.6%
CCCc1nc(Nc2nc3ccccc3o2)nc(C)c1C(=O)OCC	active: 116%
Oc1[nH]c2ccccc2c1C=Nc1ccc2c(c1)OCO2	inconclusive: 82.1%
O=C(Oc1ccc(-c2cnc3ccccc3n2)cc1)c1ccco1	inconclusive: 81%
CCOc1ccc(N/C=C/C(=O)c2ccc(C)cc2)c([N+](=O)[O-])c1	active: 88.3%
O=C(Nc1ccc(F)cc1)Nc1ccc(Cl)cn1	inconclusive: 86.9%
COc1ccc(Nc2ncnc3ccccc23)c(OC)c1	inactive: 15.2%
O=C(Nc1ccc(-c2noc(-c3ccccc3F)n2)cc1)c1cccs1	inconclusive: 83.6%
CCCCNC(=O)c1cc(-c2ccc(OC)cc2)on1	active: 80.7%
CSCCC(NC(=O)c1ccco1)C(=O)NC1CCC(C)CC1 (centres undefined)	active: 112%
CCc1ccc(NC(=O)C2CCCN2C(=O)NC2CCCCC2)cc1 (centres undefined)	inactive: -9.16%
CN(C)/C=N/c1nc(-c2ccc3ccccc3c2)cs1	active: 125%
CCCCNc1c(-c2ccc(-c3cccc(Cl)c3)cc2)nc2ccccn12	inconclusive: 80.5%
Nc1nc(-c2ccc3c(c2)CCCC3)cs1	inconclusive: 93%
CCC(=O)NC(c1ccccc1)c1nc2ccccc2[nH]1 (centres undefined)	inactive: 44.2%

Structure (SMILES)	activation
COc1nc(C)ccc1-c1noc(-c2ccncc2)n1	active: 97%
OC(CN1C2=NCCN2c2ccccc21)c1ccccc1 (centres undefined)	inactive: 1.08%
COc1ccc2cc(C(N)=O)c(=Nc3ccccc3)oc2c1	active: 102%
N/C(=N\OC(=O)COc1ccc(Br)cc1Cl)c1ccncc1	active: 130%
CC(O)CN=c1cc(-c2ccccc2)oc2ccc(Cl)cc12 (centres undefined)	inconclusive: 88.1%
O=C(Nc1ccccc1Cl)c1ccc(-c2ccccn2)s1	inconclusive: 80.9%
O=[N+]([O-])c1ccc(N/N=C\c2cccnc2)nc1	active: 99%
CC(C)(C)c1ccc(C(=O)Nc2cccc(-n3cnnn3)c2)cc1	inconclusive: 82.9%
CC(=O)c1c(C)[nH]c(C(=O)Nc2ccc(C)cc2Br)c1C	inconclusive: 80.6%
N/C(=N\OC(=O)c1ccc2ccccc2c1)c1ccncc1	inconclusive: 85.2%
c1ccc(-c2cc(N3CCCCC3)ncn2)cc1	active: 85.7%
Cc1ccc2nc(NC(=O)COC(=O)c3cccnc3)sc2c1	inconclusive: 86.8%
Cn1c2ccccc2c(=O)c2cc(C#Cc3ccccn3)ccc21	active: 102%
CC(=O)C(Cl)C(=O)Nc1ccccc1 (centres undefined)	inactive: 21.9%
CC(C(=O)O)c1ccc(N2Cc3ccccc3C2=O)cc1 (centres undefined)	inactive: -12.6%
Cc1c(C(=O)N2CCc3ccccc32)oc2c1C(=O)CC(C)(C)C2	inconclusive: 81.3%
O=C(NCCc1cccc(Cl)c1)c1cccs1	inconclusive: 81.6%
OC[C@H]1O[C@@H](n2cnc3c(NCc4ccco4)ncnc32)[C@H](O)[C@@H]1O	inactive: -64.8%
O=C(N/N=C/c1ccccc1Cl)c1cccc(F)c1	inconclusive: 84.6%
CCOC(=O)CN1C(=O)S/C(=C/c2cc(C)n(C)c2C)C1=O	active: 87.8%
Cc1ccc(O)c(-c2cc(-c3cccc(F)c3)n[nH]2)c1	inactive: -5.75%
C=CCc1c(C)nc(-c2ccccc2)nc1N/N=C/c1ccncc1	inconclusive: 92.5%
O=C(O)c1ccc(-c2cccc(Cl)c2)o1	inactive: 6.54%
CCN1C(=O)CC(SC2CC(=O)N(CC)C2=O)C1=O (centres undefined)	inactive: 4.69%
S=C1NCCOCCOCCOCCNC(=S)N2CCOCCOCCN1CCOCCOCC2	inactive: 3.8%

Structure (SMILES)	activation
Cc1cc[n+](-c2[nH]c(=O)sc2/C=N/N=C(\[O-])c2ccncc2)cc1C	inconclusive: 548%
CCOC(=O)c1ccc(NC(=O)C2C3CCCCC32)cc1 (centres undefined)	active: 82.2%
CC(=O)Nc1ccc(N/C=C/C(=O)c2ccc(C)o2)cc1	inconclusive: 86.9%
O=C(Nc1ccc([N+](=O)[O-])cc1)OCCc1ccccn1	inconclusive: 82%
Cc1cc(Br)c(OCc2ccc(C(=O)N/N=C3\CC4CC=CC34)cc2)c(Br)c1 (centres undefined)	inactive: -2.1%
O=C(O)C(=O)/C(=C\c1ccccc1)c1ccc2ccccc2n1	inactive: 5.8%
Cn1c(NC(=O)CCC2CCCCC2)cc(=O)n(C)c1=O	inconclusive: 83.5%
O=S(=O)(Nc1ccccc1)c1cccc2nonc12	inactive: -7.8%
Cn1nc(C(=O)N2CCCCC2)c2c1-c1ccccc1S(=O)(=O)C2	inactive: 4.03%
Nc1c(C(=O)Nc2ccc3c(c2)OCCO3)nnn1Cc1ccc(F)cc1	active: 116%
C=CCn1c(SCC(=O)c2[nH]c(C)c(C(C)=O)c2C)nnc1-c1ccncc1	inactive: -1.39%
CCCCOC(=O)Nc1nc2ccc(OC)cc2s1	inconclusive: 84.5%
Cc1nc2cc3nc(C)sc3cc2s1	inconclusive: 86.8%
Cc1cc(C)nc(NC(=O)/C=C/c2ccc(Cl)cc2Cl)c1	active: 88.1%
CCc1ccc(N(C(=O)c2snc(C(N)=O)c2N)C(C(=O)NC2CCCC2)c2ccco2)cc1 (centres undefined)	inactive: -5.35%
COC(=O)C1=C(O)/C(=C\c2cc(C)n(-c3ccccc3C)c2C)N=C1C	inconclusive: 82%
CCOc1ccc(NC(=O)Nc2cccc(C(=O)O)c2)cc1	inactive: -93.7%
Cc1ccc(NC(=O)NC2CCCCC2)cc1Cl	inconclusive: 85.8%
O=C(Nc1cc(F)cc(F)c1)c1ccc(NCCc2ccccc2)c([N+](=O)[O-])c1	inactive: -9.09%
CCSc1nnc(NC(=O)c2cc(C)oc2C)s1	inconclusive: 87%
CC(CCN1CCOCC1)c1ccccc1 (centres undefined)	inactive: 20.6%
COc1cc(Cl)c(C)cc1NC(=O)COc1ccc(C)nc1[N+](=O)[O-]	active: 99.2%
Cc1cc(N2CCOCC2)nc2ccc(Cl)cc12	inconclusive: 80.2%
CN(C(=O)c1cc2sccc2n1C)C1CCCCC1	inconclusive: 81.5%
COc1ccc(Nc2ncnc3sc(-c4ccccc4)cc23)cc1OC	inactive: -2.62%

Structure (SMILES)	activation
Cn1nnc2cc(C(=O)Nc3ccccc3F)ccc21	inconclusive: 86.4%
Fc1cccc(-c2cc3nc4c(c(NCc5ccco5)n3n2)CCCC4)c1	inconclusive: 81%
Cn1cc(/C=C2\SC(=O)N(c3ccc(O)cc3)C2=O)c2ccccc21	inconclusive: 81.4%
O=c1c2ccccc2oc2cc(NCCCn3ccnc3)ccc12	inconclusive: 85.6%
CCOC(=O)c1ccc(N2Cc3ccccc3C2=NC(=O)c2cccc([N+](=O)[O-])c2)cc1	inconclusive: 83.6%
COc1ccc(/C=C/c2nc(-c3ccccc3O)n[nH]2)cc1OC	active: 143%
CC(C)Oc1ccc(Nc2ncnc3ccccc23)cc1	inconclusive: 85.3%
CCCN(Cc1ccc(C)cc1)C(=O)c1ccc(CNS(=O)(=O)c2ccc(C(C)=O)cc2)cc1	inconclusive: 84.8%
CC1(c2ccccn2)Nc2ccccc2-c2nc3ccccc3n21 (centres undefined)	inactive: 65.7%
O=C(Nc1ccc(NC(=O)c2cccs2)cn1)c1ccccc1	inconclusive: 81.2%
COC(=O)C1CCN(S(=O)(=O)c2c(C)n(C)c(=O)n(C)c2=O)CC1	inactive: 0.534%
O=Cc1ccc2c(c1)CCN2Cc1ccccc1	inactive: 0.968%
Cc1c(/C=C/C(=O)c2ccccc2O)cnn1C	inconclusive: 82.6%
COc1ccc(CC(=O)NC(CC(=O)O)c2cccc([N+](=O)[O-])c2)cc1 (centres undefined)	inactive: -1.28%
CS(=O)(=O)c1cccc(C(=O)Nc2ccc3c(c2)OCCCO3)c1	active: 81.3%
COc1ccc(OC(=O)N2C/C(=C/c3ccccc3)C(=O)/C(=C\c3ccccc3)C2)cc1	inactive: -85.2%
O=C(c1cc(-c2cccc(O)c2)on1)N1CCCCC1	inactive: 53.5%
O=C(c1ccc2c3n(nc2c1)-c1ccc(Cl)cc1CO3)N1CCCCC1	active: 103%
COc1cccc(-c2ccc3ncnc(N(C)Cc4ccco4)c3c2)c1	inactive: -3.01%
O=C(O)c1ccc(N/N=C/c2cc3ccccc3nc2Cl)cc1	active: 88.4%
CC1CCCCN1C(=O)COC(=O)c1cc(Cl)c2c(c1)OCO2 (centres undefined)	inconclusive: 81.3%
CC(=O)c1c(C)[nH]c(C(=O)Nc2nc(-c3ccccc3)c(C)s2)c1C	active: 111%
COc1ccc2occ(C(=O)c3cccs3)c2c1	inconclusive: 85.4%
Cc1ccc(C(=O)O/N=C(\N)c2cccc([N+](=O)[O-])c2)cc1	active: 94.1%
